Source: PubChem BioAssay AID1963576 (National Center for Advancing Translational Sciences (NCATS), 2024)
Screen size: about 46,000 compounds; about 60 (0.1%) were called active. Roughly 3% stayed inconclusive and do not appear here. The call rests on the fitted dose curve; in most records, active means well fitted inhibition curve with a large enough effect; inconclusive means small, poorly fitted or top-dose-only effect; inactive means no such curve, though single readings can be large or run the other way. Some of the results follow.

experiment: Primary qHTS assay for Inhibitors of ovarian cancer metastasis using an organotypic tumor microenvironment (TME) model.; further: nearly all actives have a fitted effect of over 65% in size;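 on activity change, negative = inhibition: plate controls were DMSO wells for no effect and tomatine positive control wells for full effect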; conditions: SKOV3ip1-GFP adhesion/invasion on 3D omental model, fluorescence; series mostly up to 45.8 µM; activity change, negative = inhibition: at the top concentration
Summary of the method: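 A 3D layer of primary human omental fibroblasts, mesothelial cells, fibronectin and collagen I, grown 48 hr, received SKOV3ip1-GFP cells in serum-free medium plus compounds at 0.36-46 umol/L. After 2 hr RT and 16 hr 37 C, fixed adherent GFP cells were counted; normalized to DMSO and tomatine.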

Row | SMILES | activity change, negative = inhibition | outcome
1 | Cc1cc(S(=O)(=O)Nc2ccc(C(=O)O)cc2)c(C)c(S(=O)(=O)c2ccc(Cl)cc2)c1 | inactive: 0.504% | –
2 | Cc1ccc(S(=O)(=O)NCc2nc3cccnc3n2Cc2ccccc2Cl)c(C)c1 | inactive: -18.8% | –
3 | CCc1nnc2c(Nc3ccc(N(CC)CC)cc3C)nc3ccccc3n12 | inactive: -5.45% | –
4 | CCCc1nn2c(=O)cc(COC(=O)c3ccc(NC(=O)C4CCCCC4)cc3)nc2s1 | – | inactive
5 | CC(C)Cc1nn2c(=O)cc(COC(=O)c3ccccc3NC(=O)C3CCCCC3)nc2s1 | – | inactive
6 | O=C(Nc1ccc(Br)cc1F)N1CC=C(c2c[nH]c3ccccc23)CC1 | – | inactive
7 | CC(=O)c1ccc(NC(=O)c2nc(-c3ccccc3)n(-c3ccccc3)n2)cc1 | – | inactive
8 | CC(=O)c1ccccc1OCC(O)Cn1c(CO)nc2ccccc21 (stereo unspecified) | inactive: 71.2% | –
9 | COc1ccccc1NC(=O)CN1C(=O)c2ccccc2Sc2ccc(C(=O)N3CCCC3)cc21 | inactive: 11.3% | –
10 | CCc1ccccc1NC(=O)N1CC(C)Sc2ccccc21 (stereo unspecified) | – | inactive
11 | Cc1cccc(CN2C(=O)c3ccccc3Sc3ccc(C(=O)NCCCN4CCOCC4)cc32)c1 | – | inactive
12 | O=C(Nc1nc2ccccc2n1CCOc1ccccc1Cl)c1ccccc1 | inactive: -8.38% | –
13 | CCOc1cccc(C2c3c(oc4ccc(F)cc4c3=O)C(=O)N2c2cc(C)ccn2)c1 (stereo unspecified) | inactive: -4.61% | –
14 | Cc1ccc2ncc(C(=O)c3ccc(C)c(C)c3)c(S(=O)(=O)c3ccccc3)c2c1 | inactive: 4.33% | –
15 | CC1CCN(c2nc3ccccc3nc2C(F)(F)F)CC1 | – | inactive
16 | CCCCC(F)(F)[C@@]1(O)CC[C@H]2[C@H](CC(=O)[C@@H]2CCCCCCC(=O)O)O1 | inactive: 9.64% | –
17 | CC1CN(C(=O)N2CCC(C(=O)NCc3ccco3)CC2)c2ccccc2O1 (stereo unspecified) | – | inactive
18 | C[C@@H]1CCN(C(=O)CC#N)C[C@H]1N(C)c1ncnc2[nH]ccc12 | inactive: -28.9% | –
19 | CCN(CC)S(=O)(=O)c1nnc(NC(=O)c2ccc(C)cc2)s1 | inactive: 5.13% | –
20 | COc1c(O)cc2c(c1O)[C@@H]1O[C@H](CO)[C@@H](O)[C@H](O)[C@H]1OC2=O | inactive: -11.5% | –
21 | CC1CCCCN1CCCNC(=O)Cn1ncc2c3ccccc3n(Cc3ccccc3)c2c1=O (stereo unspecified) | inactive: 2.76% | –
22 | COc1ccccc1N1CCN(Cc2nc(-c3cc(OC)c(OC)c(OC)c3)no2)CC1 | inactive: 2.24% | –
23 | CC(=O)N1CCc2cc(S(=O)(=O)NC(Cc3ccccc3)C(=O)Nc3cc(C)cc(C)c3)ccc21 (stereo unspecified) | – | inactive
24 | COc1ccccc1C1C(C(=O)Nc2ccccc2)=C(C)Nc2nc(-c3ccccc3)nn21 (stereo unspecified) | inactive: -3.18% | –
25 | O=C(Cn1ncc2c3ccccc3n(Cc3ccccc3)c2c1=O)NCCCN1CCCCC1 | inactive: 6.79% | –
26 | COc1ccc(CCN2C(=O)CN(C3CCCCCC3)C(=O)C2c2ccc(Cl)cc2)cc1OC (stereo unspecified) | inactive: -6.35% | –
